Assay results taken from publication PMC6919601, “Identification of Plasmodium dipeptidyl aminopeptidase allosteric inhibitors by high throughput screening” (PLoS ONE, 2019).
Out of some 110,000 compounds screened, about 230 (0.21%) showed an effect of 50% or more. The list shows a part of the results.

What follows are compounds tested against DPAP1 (Plasmodium falciparum, UniProt Q8IIJ9) (assay: primary screen, percent inhibition; read by cleavage of a fluorogenic dipeptide substrate; higher = more effect of the substance).
Design: species or system P. falciparum D10 trophozoite lysates; single well
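Note: 30 min substrate incubation versus DMSO and 10 µM JCP410 controls.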

Sequence of DPAP1 (Q8IIJ9 whole entry, looked up): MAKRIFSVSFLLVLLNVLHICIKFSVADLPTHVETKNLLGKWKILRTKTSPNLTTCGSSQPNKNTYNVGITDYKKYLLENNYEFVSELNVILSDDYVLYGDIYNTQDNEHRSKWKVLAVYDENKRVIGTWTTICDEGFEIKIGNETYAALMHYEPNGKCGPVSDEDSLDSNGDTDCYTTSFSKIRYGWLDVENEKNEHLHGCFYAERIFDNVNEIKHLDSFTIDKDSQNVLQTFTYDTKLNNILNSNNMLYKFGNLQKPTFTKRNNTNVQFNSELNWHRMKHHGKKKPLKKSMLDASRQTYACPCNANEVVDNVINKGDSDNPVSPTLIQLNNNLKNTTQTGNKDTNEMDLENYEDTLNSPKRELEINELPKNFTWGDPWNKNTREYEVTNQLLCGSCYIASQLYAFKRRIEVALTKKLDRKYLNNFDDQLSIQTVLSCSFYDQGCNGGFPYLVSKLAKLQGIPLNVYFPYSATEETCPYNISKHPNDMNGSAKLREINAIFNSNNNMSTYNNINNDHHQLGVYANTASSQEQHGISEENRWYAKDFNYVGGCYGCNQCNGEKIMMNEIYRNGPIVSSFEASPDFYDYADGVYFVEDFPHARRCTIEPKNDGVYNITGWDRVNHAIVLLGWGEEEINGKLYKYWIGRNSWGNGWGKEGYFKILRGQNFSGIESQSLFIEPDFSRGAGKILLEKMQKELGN

| SMILES | % Inhibition @ 10 uM [%] |
| --- | --- |
| CN(C)c1ccc(NC(=O)Nc2ccc(Cl)cc2)cc1 | 0.51 |
| O=c1[nH]c2ncccc2c(=O)n1Cc1ccccc1Cl | -1.66 |
| CC1(C)C2CCC(C2)C1CC1OCC(CN2CCCCC2)O1 (stereo not shown) | -1.55 |
| O=C(/C=C/N1CCOCC1)c1cc2ccccc2o1 | 1.63 |
| COc1cccc(CNC2CCCC2)c1OC | -2.22 |
| CCN1CCN(C(=O)C2CCN(c3nnc(-n4c(C)ccc4C)s3)CC2)CC1 | -2.37 |
| CC1CCCCN1CCCNC(=O)Cn1ncc2ccc(Cl)cc21 (stereo not shown) | -1.11 |
| CC1CN(C(C)CCc2ccccc2)CC(C)O1 (stereo not shown) | -3.74 |
| COC(=O)c1ccc(C2c3c(oc4ccccc4c3=O)C(=O)N2Cc2ccc3c(c2)OCO3)cc1 (stereo not shown) | 5.3 |
| O=C(Nc1ccc(F)cc1)c1ccc(N2C(=O)c3ccccc3C2=O)cc1 | -8.76 |
| Cc1ccc2nc(NC(=O)c3ccc(Cn4cc(Cl)cn4)o3)sc2c1 | 2.1 |
| O=C(c1cc2nc(-c3ccco3)cc(C(F)(F)Cl)n2n1)N1CCSCC1 | 5.54 |
| O=C(Nc1ccc(Cl)c(C(F)(F)F)c1)C1CC(=O)N(c2ccccc2)C1 (stereo not shown) | -1.06 |
| CC1=C(C(=O)N2CCCCC2)C(c2ccsc2)C2=C(O)CCCC2=N1 (stereo not shown) | 0.219 |
| COc1ccc(Br)c(C(=O)Nc2noc3ccccc23)c1 | -2.85 |
| CC1CCCN(C2CN3CCC2CC3)C1 (stereo not shown) | -3.82 |
| O=C(CSc1nc2ccc([N+](=O)[O-])cc2s1)c1ccccc1 | -0.424 |
| Cc1cc(C)n(-c2nc3cc(Cl)c(Cl)cc3n3cnnc23)n1 | -6.58 |
| CN1CCN(C(=O)c2cc3c(s2)-c2ccccc2SC3)CC1 | 1.15 |
| CCOCCCNC(=O)C(c1ccc(C)cc1)N1CCOCC1 (stereo not shown) | -0.363 |
| Brc1ccc(CN2CCc3c([nH]c4ccccc34)C2)s1 | -0.828 |
| COc1ccc2cc(C(C)OC(=O)N[C@@H](CC(C)C)C(=O)NCC#N)ccc2c1 (stereo partly shown) | -8.26 |

| SMILES | % Inhibition @ 10 uM [%] |
| --- | --- |
| CCCc1nnc2[nH]c(=O)n(C)c(=O)c2n1 | -1.11 |
| CC1CCC(N(C)CC(O)c2ccccc2)CC1 (stereo not shown) | -1.75 |
| Cc1ccc(CNc2ncnc3onc(-c4ccc(Cl)cc4)c23)cc1 | -3.95 |
| Clc1ccccc1OCCCCCCN1CCCC1 | -4.01 |
| CCC(Oc1ccccc1)C(=O)Nc1ccc(C)c(C)c1 (stereo not shown) | 8.28 |
| CC1CCN(C(=O)c2cnn3c(C(F)(F)F)cc(-c4cccs4)nc23)CC1 | 0.51 |
| CNC(=O)N1CCN(C(=O)NC)CC1 | -3.77 |
| Nc1c(C(=O)c2ccc(Cl)cc2)sc2nc3c(cc12)CCCC3 | 4.66 |
| Cc1cccc(OCC(=O)NC2CCCCC2)c1 | -2.74 |
| Cc1ccc(-n2nc3c(c2NC(=O)c2c(F)cccc2F)CS(=O)(=O)C3)cc1 | 1.17 |
| CCS(=O)(=O)Nc1ccc(Nc2ccccc2)cc1 | -7.08 |
| COc1cc(C(=O)NCC2CCCO2)cc(OC)c1OC (stereo not shown) | 2.45 |
| CCCN(CCC)c1ccc(C(c2c(C)n(C)n(-c3ccccc3)c2=O)c2c(C)n(C)n(-c3ccccc3)c2=O)cc1 | 3.74 |
| CC(C)(C)NC(=O)/C(=C\c1cccs1)NC(=O)c1cccs1 | 0.385 |
| Cc1nc(CC(=O)Nc2sc3c(c2C#N)CCCC3)cs1 | -0.946 |
| CC(=O)Nc1cccc(Oc2ncnc3scc(-c4ccc(C)cc4)c23)c1 | 27.9 |
| CCN(CC)S(=O)(=O)c1ccc(NC(=O)c2ccc(C)c(Br)c2)cc1 | -0.173 |
| Cc1noc(/C=C/N(C)C)c1S(=O)(=O)NCCN1CCC(Cc2ccccc2)CC1 | 2.8 |
| CC(C)C[C@H](NC(=O)c1cccc(-c2ccc(S(=O)(=O)N3CCOCC3)s2)c1)C(=O)NCC#N | -0.207 |
| Clc1ccc(-c2nc3cc4ccccc4cc3o2)cc1 | -2.59 |
| CCc1ccc(CN(C(=O)c2cc(=O)c3ccccc3o2)C2CCS(=O)(=O)C2)cc1 (stereo not shown) | 3.51 |
| COc1ccc(C(=O)CCC(=O)Nc2cccnc2)cc1 | -2.28 |

| SMILES | % Inhibition @ 10 uM [%] |
| --- | --- |
| CC(C)C[C@H](NC(=O)c1ccc(S(C)(=O)=O)cc1)C(=O)NCC#N | -1.41 |
| O=C(Nc1ccc([N+](=O)[O-])cc1)c1ccc(-c2ccccc2)cc1 | 2.62 |
| CC(=O)NC1C(OCCOc2ccc(Cl)cc2C)OC(CO)C(O)C1O (stereo not shown) | 4.41 |
| CC(=O)NCCc1nc2ccccc2n1CCC1CCCCC1 | 2.73 |
| CCc1nnc(NC(=O)C2CCCN(c3ncnc4c3nc3n4CCCCC3)C2)s1 (stereo not shown) | -4.77 |
| CCc1c(C#N)c(SCC(=O)N2CCc3cc(OC)c(OC)cc3C2)nc2c1C(=O)CC(C)(C)C2 | 17.8 |
| Cc1ccccc1NC(=O)CN1C(=O)S/C(=C\c2ccccn2)C1=O | -7.61 |
| COc1cc(C2C3=C(O)CCCC3=NC(C)=C2C(=O)N2CCOCC2)ccc1OCc1ccccc1 (stereo not shown) | 0.219 |
| O=C(NC1CCCC1)c1cc(Cl)c(Cl)c(S(=O)(=O)N2CCOCC2)c1 | -4.66 |
| O=C1/C(=C/c2ccco2)N=C(Oc2ccccc2)N1c1ccccc1 | 1.31 |
| CCCCOc1ccccc1C1C2=C(O)CC(C)(C)CC2=NC(C)=C1C(=O)OCC (stereo not shown) | 10.2 |
| COc1cccc(C2C3=C(O)CC(C)(C)CC3=NC3=C2C(=O)CC(C)(C)C3)c1 (stereo not shown) | -0.864 |
| CC1=C(C(=O)Nc2ccccc2C)C(c2ccccc2C)C2=C(O)CC(C)(C)CC2=N1 (stereo not shown) | -0.864 |
| Brc1csc(CN2CCN(C/C=C/c3ccccc3)CC2)c1 | -3.65 |
| CCOCCCNC(=O)CSc1nc2nc(C)c(Cc3cccc(C)c3)c(C)n2n1 | 2.83 |
| N#C/C(=C/c1cccs1)c1nc(-c2cc3ccccc3oc2=O)cs1 | 3.06 |
| CCOC(=O)c1c(NC(=O)C2C3CCC(O3)C2C(=O)O)sc2c1CCC(CC)C2 (stereo not shown) | 3.94 |
| O=C(CSc1nc2ccc(NC(=O)c3ccccc3Cl)cc2s1)NC1CC1 | 5.66 |
| Cc1ccc(C2Nc3ccccc3N=C3CC(C)(C)CC(O)=C32)o1 (stereo not shown) | -8.3 |
| CC(C)(C)NC(=O)COCc1cc(-c2ccc(F)cc2)on1 | -0.501 |
